Assay results taken from PubChem BioAssay AID504832 (National Center for Advancing Translational Sciences (NCATS), 2011).
The whole screen tested about 310,000 compounds, of which about 18,000 (5.8%) were called active. Inconclusive results, whose numbers are uncertain, are shown with a selection of clear calls. Calls come from the whole dose curve; as a rule, active = well fitted inhibition curve with a large enough effect; inconclusive = small, poorly fitted or top-dose-only effect, or another doubt; inactive = no such curve, though single readings can be large or run the other way. Potencies of inconclusive entries are left out as doubtful fits.

experiment: Primary qHTS for delayed death inhibitors of the malarial parasite plastid, 48 hour incubation; conditions: P. falciparum luciferase growth in erythrocytes; series mostly up to 28.7 µM
Outline: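 Firefly luciferase activity from engineered P. falciparum reports growth; inhibitors lower the luminescent signal. Cultures contained 2% hematocrit erythrocytes at 0.1% final parasitemia.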
Potency is the fitted concentration of half-maximal effect; tags give direction and shape of the fitted curve.

**Q.** For `COc1ccc(CCNCC(=O)N2C(C)CCCC2C)cc1OC` (stereo not drawn), which Potency is on record?
**A.** inconclusive [inhibitor, full curve, poor fit]

**Q.** With `Oc1ccc2[nH]cc(CCCCN3CC=C(c4ccccc4)CC3)c2c1` as the compound, how does the Potency read?
**A.** active: 4.26 µM

**Q.** For `Cn1cnnc1Sc1ccc(C(=O)NCCC(c2ccccc2)c2ccccc2)cc1[N+](=O)[O-]`, which Potency is on record?
**A.** active: 8.28 µM

**Q.** Which Potency does the source give for `CC(OC(=O)Cc1coc2cc3c(cc12)CCC3)C(=O)NCc1ccc2c(c1)OCO2` (stereo not drawn) here?
**A.** inactive

**Q.** For `CC1CN(Cc2cn(C)nc2-c2ccc(Oc3ccccc3)cc2)CCN1C` (stereo not drawn), which Potency is on record?
**A.** inconclusive [inhibitor, partial curve, poor fit]

**Q.** For `Cc1ccn2cc(-c3cccc(S(=O)(=O)N4CC(C)OC(C)C4)c3)nc2c1` (stereo not drawn), which Potency is on record?
**A.** inconclusive [inhibitor, partial curve, poor fit]

**Q.** With `CC(=O)Cc1nsc(Nc2ccc(F)cc2)n1` as the compound, how does the Potency read?
**A.** inactive

**Q.** For `Cc1ccc(-c2nc(-c3ccncc3)no2)cc1`, which Potency is on record?
**A.** inactive

**Q.** For `CCC(C)(C)NC(=O)C(OC(=O)c1cc2sccc2n1C)c1ccc(OC)cc1` (stereo not drawn), which Potency is on record?
**A.** inactive

**Q.** For `CC(C)C(OC(=O)CCC(=O)Nc1nccs1)C(=O)NC1CCCCC1` (stereo not drawn), which Potency is on record?
**A.** inactive

**Q.** For `COc1ccccc1CNC(=O)c1cccc(NC(=O)c2ccccc2)c1`, which Potency is on record?
**A.** inconclusive [inhibitor, single point]

**Q.** For `COc1ccc(-n2c(C)cc(C(=O)COC(=O)c3cc(NC(=O)c4cccs4)c(OC)c(OC)c3)c2C)cc1`, which Potency is on record?
**A.** active: 1.85 µM

**Q.** With `CCn1cc(/C=C(\NC(=O)c2ccc(C)cc2)C(=O)NCCN2CCOCC2)c2ccccc21` as the compound, how does the Potency read?
**A.** inactive

**Q.** With `CC1CCN(Cc2c(C(=O)N/N=C/c3ccc(C(C)C)cc3)nnn2-c2nonc2N)CC1` as the compound, how does the Potency read?
**A.** inconclusive [inhibitor, single point]

**Q.** With `Cc1cccc(N2C(=O)/C(=C/c3ccc(N4CCN(C)CC4)o3)C(=O)NC2=S)c1C` as the compound, how does the Potency read?
**A.** inconclusive [inhibitor, single point]

**Q.** With `O=C(CCSc1nc(-c2ccc3c(c2)OCO3)cc(C(F)(F)F)n1)NCc1ccccc1` as the compound, how does the Potency read?
**A.** inconclusive [inhibitor, single point]

**Q.** With `COc1ccc(C2=NOC(Cn3nc(C(=O)O)cc3-c3ccccc3)C2)cc1` (stereo not drawn) as the compound, how does the Potency read?
**A.** inactive

**Q.** With `O=C(NCCc1ccc(C(F)(F)F)cc1)C1CC(=O)N(c2ccc3c(c2)OCCO3)C1` (stereo not drawn) as the compound, how does the Potency read?
**A.** inconclusive [inhibitor, single point]

**Q.** Which Potency does the source give for `CC(C)c1cc(=O)[nH]c(N2CCN(Cc3ccc4c(c3)OCO4)CC2)n1` here?
**A.** inactive

**Q.** Which Potency does the source give for `O=C1NCCc2cc3c(cc21)OCO3` here?
**A.** inactive

**Q.** With `CCn1cnc2c1c(=O)n(CC(=O)Nc1ccc3c(c1)OC(F)(F)O3)c(=O)n2Cc1ccccc1` as the compound, how does the Potency read?
**A.** inconclusive [inhibitor, partial curve]

**Q.** For `Cc1cc(OCc2cc(C(=O)NCc3csc(C(C)C)n3)no2)cc(C)c1Cl`, which Potency is on record?
**A.** inactive

**Q.** With `O=C(CCn1cnc2ccccc2c1=O)Nc1ccc(S(=O)(=O)N2CCCCC2)cc1` as the compound, how does the Potency read?
**A.** inconclusive [inhibitor, partial curve]

**Q.** For `COc1ccc(N2CCN(C(=O)CC(C)S(=O)(=O)c3ccc4c(c3)NC(=O)CO4)CC2)cc1` (stereo not drawn), which Potency is on record?
**A.** inactive

**Q.** Which Potency does the source give for `C=CCN(CC=C)S(=O)(=O)c1ccc(NC(=S)NC(=O)C2CC2)cc1` here?
**A.** inconclusive [inhibitor, partial curve, poor fit]

**Q.** With `CCCOC(=O)c1ccc(-[n+]2c(-c3ccccc3)cc(-c3ccccc3)cc2-c2ccccc2)cc1` as the compound, how does the Potency read?
**A.** active: 2.33 µM

**Q.** For `Cc1ccc(S(=O)(=O)N2CCCC2C(=O)Nc2nc3c(s2)CCCC3)cc1` (stereo not drawn), which Potency is on record?
**A.** inconclusive [inhibitor, single point]

**Q.** For `Cc1ccc(CNCC(=O)Nc2ccc(C)cc2Br)cc1`, which Potency is on record?
**A.** inactive

**Q.** For `CC(C)C[C@H](NC(=O)c1[nH]cnc1C(=O)N[C@@H](Cc1ccccc1)C(=O)OCc1ccccc1)C(=O)OC(C)(C)C`, which Potency is on record?
**A.** inconclusive [inhibitor, partial curve, poor fit]

**Q.** With `Cc1sc(N/N=C/C=C/c2ccccc2)nc1-c1ccccc1` as the compound, how does the Potency read?
**A.** inconclusive [inhibitor, single point]

**Q.** Which Potency does the source give for `Cc1ccc(NS(=O)(=O)c2sc3ccc(Cl)cc3c2C)cc1` here?
**A.** inconclusive [inhibitor, full curve, poor fit]

**Q.** With `COc1ccc(CCNC(=O)C(=O)N2CCCC2)cc1OC` as the compound, how does the Potency read?
**A.** inactive

**Q.** For `COc1cccc(CN(C)C(=O)C2CCN(S(=O)(=O)c3cccs3)CC2)c1OC`, which Potency is on record?
**A.** inconclusive [inhibitor, single point]

**Q.** With `CN(C)CCCNC(=O)/C(=C\C=C\c1ccccc1)NC(=O)c1ccc([N+](=O)[O-])cc1` as the compound, how does the Potency read?
**A.** inconclusive [inhibitor, single point]

**Q.** For `COCCNC(=O)C(OC(=O)c1nsc(Cl)c1Cl)C(C)C` (stereo not drawn), which Potency is on record?
**A.** inactive

**Q.** With `Cc1cc(-c2n[nH]c(=S)n2/N=C/c2ccc(Br)s2)n[nH]1` as the compound, how does the Potency read?
**A.** inactive

**Q.** With `COc1ccccc1NC(=O)CSc1nnc(C)n1CCc1ccccc1` as the compound, how does the Potency read?
**A.** inconclusive [inhibitor, full curve, poor fit]

**Q.** For `CC(C)(C)CC(=O)Nc1ccc(Nc2ccccc2)cc1`, which Potency is on record?
**A.** inactive

**Q.** Which Potency does the source give for `CCN(CC)C(=O)CN(C#N)c1nc(NC(C)C)nc(NC(C)C)n1` here?
**A.** inconclusive [inhibitor, partial curve, poor fit]

**Q.** Which Potency does the source give for `CCOC(=O)C1CCN(C(=O)C2CCN(S(=O)(=O)c3ccc4ccccc4c3)CC2)CC1` here?
**A.** inconclusive [inhibitor, single point]

**Q.** With `CCOc1ccc(NC(=O)COc2ccc(C(=O)NCc3cccnc3)cc2OC)cc1` as the compound, how does the Potency read?
**A.** inconclusive [inhibitor, single point]

**Q.** With `COc1ccc(/C=C(/NC(=O)c2ccco2)C(=O)N2CCCCC2)cc1` as the compound, how does the Potency read?
**A.** inactive

**Q.** Which Potency does the source give for `Cc1nn(C)c(C(=O)N/N=C/c2cc3c(cc2Br)OCO3)c1Br` here?
**A.** inconclusive [inhibitor, single point]

**Q.** For `O=C1c2ccccc2C(=O)N1CSc1nnc(Nc2ccccc2)s1`, which Potency is on record?
**A.** inactive

**Q.** Which Potency does the source give for `O=C(c1cnn2c1NC(c1ccc(Br)cc1)CC2C(F)(F)F)N1CCN2CCCC2C1` (stereo not drawn) here?
**A.** inconclusive [inhibitor, single point]

**Q.** With `CCOC(=O)CNc1ncc(C(F)(F)F)cc1Cl` as the compound, how does the Potency read?
**A.** inactive

**Q.** For `CC1CCc2nc(NC(=O)c3cc(C(C)(C)C)nn3C)sc2C1` (stereo not drawn), which Potency is on record?
**A.** inconclusive [inhibitor, full curve]

**Q.** Which Potency does the source give for `O=C1CN(S(=O)(=O)c2ccccc2C(F)(F)F)CCN1` here?
**A.** inactive

**Q.** For `Cc1ccc(S(=O)(=O)N2c3ccc(S(N)(=O)=O)cc3CC2C)cc1` (stereo not drawn), which Potency is on record?
**A.** inconclusive [inhibitor, single point]

**Q.** With `O=C(NCc1ccc2c(c1)OCO2)c1ccc2c(c1)OCO2` as the compound, how does the Potency read?
**A.** inactive

**Q.** With `CCOc1ccc(C(C)=O)cc1COc1ccc(-c2nnco2)cc1` as the compound, how does the Potency read?
**A.** inconclusive [inhibitor, single point]

**Q.** Which Potency does the source give for `O=[N+]([O-])c1cc([N+](=O)[O-])c2cc3ccccc3nc2c1` here?
**A.** inconclusive [inhibitor, partial curve, poor fit]

**Q.** With `CC(=O)NC(c1ccco1)c1ccc2cccnc2c1O` (stereo not drawn) as the compound, how does the Potency read?
**A.** active: 10.4 µM

**Q.** With `Cc1ccc(NC(=O)N2CCC(NC(=O)c3cccc(C)c3)CC2)cc1` as the compound, how does the Potency read?
**A.** inconclusive [inhibitor, partial curve, poor fit]

**Q.** For `CC(=O)c1csc(Nc2ccccc2Cl)n1`, which Potency is on record?
**A.** inactive

**Q.** For `COc1ccc(-n2c(SCC(=O)Nc3ccc(Br)cc3)nc(O)cc2=O)cc1`, which Potency is on record?
**A.** inconclusive [inhibitor, partial curve, poor fit]

**Q.** With `O=C(c1ccc(=O)[nH]c1)N1CCCc2ccccc21` as the compound, how does the Potency read?
**A.** inactive

**Q.** Which Potency does the source give for `CC(C)Oc1ccc(C(=O)NCCNC(=O)c2ccco2)cc1` here?
**A.** inactive

**Q.** Which Potency does the source give for `CN(C)c1ccc(N/C=C/C(=O)C(C)(C)C)cc1` here?
**A.** active: 2.33 µM

**Q.** Which Potency does the source give for `O=C(Nc1ccccc1-c1ccccc1)C1CCCN(c2ncccn2)C1` (stereo not drawn) here?
**A.** inactive

**Q.** For `Cc1ccc(N(Cc2ccc([N+](=O)[O-])cc2)C(=O)c2ccco2)cc1`, which Potency is on record?
**A.** inconclusive [inhibitor, partial curve]

**Q.** Which Potency does the source give for `CCCSc1oc(-c2ccco2)nc1S(=O)(=O)c1ccc(C)cc1` here?
**A.** inconclusive [inhibitor, single point]

**Q.** Which Potency does the source give for `COc1cccc(NC(=O)CN(C)C(=O)C(Sc2ccccc2)c2ccccc2)c1` (stereo not drawn) here?
**A.** inconclusive [inhibitor, single point]

**Q.** For `Cc1ccc(C)c(NC(=O)C(OC(=O)c2ccc(CO)cc2)c2ccccc2)c1` (stereo not drawn), which Potency is on record?
**A.** inconclusive [inhibitor, single point]

**Q.** With `CCN(CC)C(=O)CSc1nc2sc3c(c2c(=O)n1CCOC)CCC3` as the compound, how does the Potency read?
**A.** inconclusive [inhibitor, partial curve]

**Q.** For `CCOC(=O)c1ccc(NC(=O)CSc2nc3c(c(=O)n2-c2ccccc2OC)SCC3)cc1`, which Potency is on record?
**A.** inactive

**Q.** For `CCn1c2ccccc2c2cc(Nc3cc(C)nc4ncnn34)ccc21`, which Potency is on record?
**A.** active: 0.0738 µM

**Q.** With `COCCNC(=O)CN1CCN(C(c2ccccc2)c2ccccc2)CC1` as the compound, how does the Potency read?
**A.** inconclusive [inhibitor, single point]

**Q.** Which Potency does the source give for `CCOC(=O)c1ccc(NC(=O)CSc2nnnn2C2CCCCC2)cc1` here?
**A.** inactive

**Q.** Which Potency does the source give for `O=C1CSc2ccc(C(=O)NCC(c3ccco3)N3CCCCC3)cc2N1` (stereo not drawn) here?
**A.** inconclusive [inhibitor, single point]

**Q.** With `Cc1ccccc1-c1nnn(CC(=O)c2ccc(S(=O)(=O)N3CCCC3)cc2)n1` as the compound, how does the Potency read?
**A.** inconclusive [inhibitor, partial curve]

**Q.** For `CCN1CCN(CCCNC(=O)CN2C(=O)c3cccnc3Oc3ccc(Cl)cc32)CC1`, which Potency is on record?
**A.** inactive

**Q.** With `Cc1cccc(NC(=S)NC2CCCC2)c1C` as the compound, how does the Potency read?
**A.** inconclusive [inhibitor, single point]
